Measurements from PMC4336329 (PLoS ONE, 2015).
The campaign covered roughly 310,000 compounds. About 14,000 (4.5%) showed an effect of 50% or more. Effects have a minus sign here. Some of the results follow.

Molecular target: human ether-à-go-go-related gene (hERG) potassium channel (human, UniProt Q12809)
Experiment: primary screen, population patch clamp on CHO cells stably expressing hERG
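Also: peak tail current of the secondary pulse compared with the same well before compound.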

Sequence of human ether-à-go-go-related gene (hERG) potassium channel (Q12809 whole entry, looked up): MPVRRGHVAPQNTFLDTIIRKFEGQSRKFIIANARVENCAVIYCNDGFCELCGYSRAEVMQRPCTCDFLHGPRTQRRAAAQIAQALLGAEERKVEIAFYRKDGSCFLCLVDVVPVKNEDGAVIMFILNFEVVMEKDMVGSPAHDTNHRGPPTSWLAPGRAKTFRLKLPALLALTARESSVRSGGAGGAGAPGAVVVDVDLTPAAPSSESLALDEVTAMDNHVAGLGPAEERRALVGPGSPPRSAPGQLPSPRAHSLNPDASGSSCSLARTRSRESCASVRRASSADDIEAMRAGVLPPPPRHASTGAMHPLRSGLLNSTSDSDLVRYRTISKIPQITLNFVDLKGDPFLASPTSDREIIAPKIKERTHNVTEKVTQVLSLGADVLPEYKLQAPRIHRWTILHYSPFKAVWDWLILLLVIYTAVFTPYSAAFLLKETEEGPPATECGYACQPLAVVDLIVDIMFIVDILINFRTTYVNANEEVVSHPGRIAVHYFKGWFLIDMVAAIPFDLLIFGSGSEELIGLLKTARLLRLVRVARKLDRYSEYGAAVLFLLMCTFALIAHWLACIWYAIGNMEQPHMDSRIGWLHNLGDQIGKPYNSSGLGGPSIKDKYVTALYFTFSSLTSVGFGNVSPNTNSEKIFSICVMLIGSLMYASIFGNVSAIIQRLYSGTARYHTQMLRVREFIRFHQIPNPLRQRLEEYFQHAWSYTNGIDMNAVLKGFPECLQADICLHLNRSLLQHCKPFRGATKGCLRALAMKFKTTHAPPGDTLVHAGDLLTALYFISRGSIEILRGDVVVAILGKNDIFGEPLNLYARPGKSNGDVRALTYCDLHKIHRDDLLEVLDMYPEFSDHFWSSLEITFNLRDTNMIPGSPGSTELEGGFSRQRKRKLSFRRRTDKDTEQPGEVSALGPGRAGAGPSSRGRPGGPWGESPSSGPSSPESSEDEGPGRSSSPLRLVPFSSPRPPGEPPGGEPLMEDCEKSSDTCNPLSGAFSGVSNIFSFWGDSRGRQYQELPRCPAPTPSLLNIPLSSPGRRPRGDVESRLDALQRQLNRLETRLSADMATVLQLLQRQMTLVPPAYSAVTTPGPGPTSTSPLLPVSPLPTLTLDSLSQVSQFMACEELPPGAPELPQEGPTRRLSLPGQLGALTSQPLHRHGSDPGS

SMILES | hERG current change (%, negative = inhibition) at 10uM
O=C(Oc1ccccc1C(=O)Oc1ccccc1)c1cccnc1 | -5.85%
C=C1CCC[C@]2(C)C[C@H]3OC(=O)C(CNCC(OC)OC)[C@H]3CC12 (stereo partly drawn) | 20.1%
CCC(=O)c1cn(Cc2ccc(C#N)cc2)c2ccccc12 | -71.8%
CCCCCCCC(=O)Nc1cc(C(=O)NCCC)ccc1N1CCC2(CC1)CC(c1ccccc1)=NO2 | -20.9%
COc1cc(NC(=O)CSc2cc(C)c3cc(C)cc(C)c3n2)c(C(=O)O)cc1OC | 10.7%
C=CCN(c1ccc(C(=O)NCCc2ccccc2)cc1)S(C)(=O)=O | -6.23%
CC(C)Oc1ccc(S(=O)(=O)N2CCOCC2)cc1NC(=O)C1CSC2(C)CCC(=O)N12 (stereo not drawn) | -7.56%
Cc1c(C(c2ccc(Cl)cc2Cl)c2c(O)c3ccccc3oc2=O)c(=O)n(-c2ccccc2)n1C (stereo not drawn) | -19.3%
O=S(=O)(NC1CCCCCCC1)c1ccc(F)cc1 | 0.036%
O=C(C1CCN(Cc2ccc(OCc3ccccc3)cc2)CC1)N1CCCC1 | -47.1%
Cc1ccc(NS(=O)(=O)c2cc(C(=O)N3CCCC3)ccc2C)cc1C | 7.04%
O=C(NCCc1ccc(Cl)cc1)C1CCCN1C(=O)Nc1ccc(F)cc1 (stereo not drawn) | -31.3%
O=C(CSc1nnc(-c2ccncc2)o1)c1ccc2c(c1)OCCO2 | 9.18%
Cc1ccc(Cc2c(C)nc3nc(SCC(=O)NCCCN4CCCCC4)nn3c2C)cc1 | -42.7%
COc1ccc2oc(C(=O)NCC(Cc3ccccc3)N(C)C)c(C)c2c1 (stereo not drawn) | -37.6%
CCC(C)(C)NS(=O)(=O)c1cc(CN2C(=O)c3cccnc3C2=O)ccc1OC | 10.7%
O=C(c1ccccc1F)N1CCN(c2ccc([N+](=O)[O-])c(NCC3CCCO3)c2)CC1 (stereo not drawn) | -80.8%
CCOc1ccc(C(=S)NC2CCCCC2)cc1OCC | -7.96%
CCOC(=O)C1=NN(c2cccc(Cl)c2)C2=NC(C)=C(C(=O)OC)C(c3cccs3)N12 (stereo not drawn) | 6.72%
COc1ccc(C(=O)Nc2ccccc2C(=O)NCC2CCCO2)cc1 (stereo not drawn) | 4.28%
Cc1nc2ccccc2nc(C)c1=NOCc1cccc(Cl)c1 | -7.4%
COc1ccc(/C=N/OCC(=O)NCC(C)C)c(OC)c1 | 1.44%

SMILES | hERG current change (%, negative = inhibition) at 10uM
Cc1nc2ccccn2c1-c1csc(NCc2ccco2)n1 | -74.6%
O=c1[nH]c2ccccc2c(O)c1-c1cc2ccccc2oc1=O | 27.9%
CCCCN(Cc1ccccc1)C1CCN(CCc2ccccc2)CC1 | -72.2%
O=C(Cc1nc2ccccc2[nH]1)c1ccc([N+](=O)[O-])cc1 | -2.13%
COc1ccccc1Nc1nc(C2(C)CCC(=O)O2)cs1 (stereo not drawn) | -13%
O=C(Nc1ccc2c(c1)OCCO2)c1c(F)cccc1F | 6.29%
COc1ccc(C)c2sc(NC(=O)C3=COCCO3)nc12 | 13.3%
COc1ccccc1CCNC(=O)C(=O)NCC1OCCCN1S(=O)(=O)c1ccc(F)cc1C (stereo not drawn) | -12.6%
CCOc1cccc(NC(=O)C2CCCN(S(=O)(=O)c3ccc(OC)cc3)C2)c1 (stereo not drawn) | -11%
O=C(/C=C/c1ccc2c(c1)OCO2)Nc1nc(-c2ccc(F)cc2)cs1 | 6.25%
CS(=O)(=O)Nc1ccc(C(=O)NCCSC2CCCCC2)cc1 | -20.5%
CC(=O)c1c(C(C)=O)c(C)n(-c2ccc(N)cc2)c1C | 0.535%
CC(C)C(NC(=O)C1CCCCC1)C(=O)N1CCN(c2ccc(F)cc2)CC1 (stereo not drawn) | -55.7%
Cc1ccc(S(=O)(=O)CC2CSc3nc4ccccc4n32)cc1 (stereo not drawn) | -34.3%
Cn1cnc([N+](=O)[O-])c1Oc1ccc2ccccc2c1 | -0.963%
Clc1ccc(OCCCNCc2ccccc2)c(Br)c1.O=C(O)C(=O)O | -64.4%
Cc1c(Cl)cnc(NC(=O)COC(=O)c2cccs2)c1Cl | 9.57%
Cc1cccc(OCC(=O)NC2CCCCCC2)c1C | 3.98%
CN(C)C(=O)C1(c2ccccc2)CCN(S(=O)(=O)c2ccccc2)CC1 | 12.9%
CC(C)CC(=O)N1CCN(C(=O)CCC2CCCC2)CC1 | 1.8%
Cc1csc(NC(=O)CN2C(=O)c3ccccc3S2(=O)=O)n1 | 7.89%
COc1ccccc1CN(C(=O)c1ccco1)C(C(=O)NC1CCCC1)c1ccncc1 (stereo not drawn) | -8.04%

SMILES | hERG current change (%, negative = inhibition) at 10uM
Cc1ccc(C2(C)NC(=O)N(CC(=O)Nc3c(C)n(C)n(-c4ccccc4)c3=O)C2=O)cc1 (stereo not drawn) | 7.86%
CC(C)Cn1c(N)c(C(=O)COC(=O)c2ccccc2Cl)c(=O)n(C)c1=O | -41.7%
C=C(C(=O)Nc1ccccc1)c1ccc(C)cc1 | -4.77%
O=C(O)/C=C/C(=O)NCCC1=CCCCC1 | 15%
CCOC(=O)c1ccc(NC(=O)COc2ccc(CNC3CCCCC3)cc2OC)cc1 | -26%
O=[N+]([O-])c1cnn2cc(Br)cnc12 | 10.2%
Cn1c(NC(=O)c2ccc(F)cc2)c(-c2cccs2)c(=O)c2ccccc21 | 8.27%
O=C(CSc1nnc(SCc2cccc3ccccc23)s1)Nc1ccc(C(=O)O)cc1 | 15%
CCc1ccc(NC(=O)C(=O)c2cn(CC(=O)N3CCCCC3)c3ccccc23)cc1 | 12.5%
CCC(C(=O)Nc1cccc(S(=O)(=O)N(C)c2ccccc2)c1)c1ccccc1 (stereo not drawn) | -3.74%
COc1cc(C2NC(=S)NC(c3ccccc3)=C2C(C)=O)cc(Cl)c1OCC(=O)O (stereo not drawn) | 5.99%
COc1cccc(N2CCN(C(=O)c3ccc(CS(=O)Cc4ccccc4Cl)o3)CC2)c1 (stereo not drawn) | -70.7%
Cc1cc(C)cc(NS(=O)(=O)c2ccc(NC(=S)Nc3ccccc3)cc2)c1 | -12.5%
O=[N+]([O-])c1cc(C(F)(F)F)ccc1N1CCC(O)CC1 | 0.342%
COc1cc(C)c(Cc2cnc(N)nc2N)cc1OC | -7.19%
CCOc1ccc(/C=C/C(=O)OCC(=O)c2ccccc2OC)cc1OC | 14%
Cc1noc(NS(=O)(=O)c2ccc(NC(=O)COc3ccccc3)cc2)c1C | -0.448%
Cc1ccc(S(=O)(=O)N2CCC(C)CC2)c([N+](=O)[O-])c1 | -12.9%
Cc1cc(C)c2c3c(sc2n1)C(c1cccc(F)c1)C(C#N)=C(N)O3 (stereo not drawn) | 1.33%
COc1ccc(S(=O)(=O)N2CCCCC2)cc1NC(=O)C1CC1C (stereo not drawn) | -9.97%
CC(C)n1c(SCC(=O)Nc2ccccc2N2CCOCC2)nc2c1c(=O)n(C)c(=O)n2C | -39.1%
NS(=O)(=O)c1ccc(CNC(=O)c2cc(-c3cccnc3)nc3ccc(Cl)cc23)cc1 | 8.25%

SMILES | hERG current change (%, negative = inhibition) at 10uM
COc1ccc(/C=C/C(=O)Nc2cccnc2Cl)cc1 | 19.6%
CC(=O)c1cccc(NC(=O)C2C3CCC(C3)C2C(=O)O)c1 (stereo not drawn) | 4.1%
CS(=O)(=O)N(CC(=O)Nc1ccccc1Sc1ccccc1)c1cccc(Br)c1 | -7.48%
CC1(C)CC(=O)C(C(C2=C(O)CC(C)(C)CC2=O)c2cccnc2)C(=O)C1 (stereo not drawn) | 12.4%
CC12CCC(C1)C(C)(C)C2NS(=O)(=O)c1ccc(F)cc1 (stereo not drawn) | -3.5%
Cc1ccc(S(=O)(=O)NC(C(=O)OCC(=O)NC(=O)c2cccn2C)C(C)C)cc1 (stereo not drawn) | -25.3%
CCc1nc2ccccc2c(C(=O)OCC(=O)Nc2ccc(S(=O)(=O)N3CCOCC3)cc2)c1C | 4.43%
O=C(NNC(=S)Nc1ccc(OC(F)F)cc1)c1cc2c(s1)CCCC2 | -16.3%
O=C(Nc1ccc(F)cc1)c1cc2ccccc2o1 | 20%
NS(=O)(=O)c1ccc(CCNS(=O)(=O)Cc2ccc(Cl)cc2)cc1 | 16.9%
O=C(NCCN1CCOCC1)c1cccnc1SCc1ccccc1Cl | -8.85%
CCOc1ccc(-c2noc(CCC(=O)NC3CCCCC3)n2)cc1OC | 7.72%
COc1ccc(N2C(=O)c3ccccc3NC23C(=O)N(C)c2ccccc23)cc1 (stereo not drawn) | 2%
Cc1cccc(C(=O)NCCNC(=O)c2ccccn2)c1 | 5.88%
CCOC(=O)c1c(NC(=O)C2CC2)sc2c1CC(C)(C)OC2 | -7%
CS(=O)c1nc(-c2ccc(Br)cc2)cc(-c2ccccc2)c1C#N (stereo not drawn) | 0.0465%
Cn1c2ccc(F)cc2c2nc3ccccc3nc21 | -25.2%
CN1CCC(N(C)C(=O)c2ccc(Cl)c(S(=O)(=O)N3CCCCC3)c2)CC1 | -42.5%
O=C(CCCn1nnnc1CN1CCOCC1)N1CCC(c2ccc(F)cc2)C1 (stereo not drawn) | -32.1%
O=C1N=C(N2CCCC2)CN1c1ccccc1 | 18.3%
C/C=C(\NC(C)=O)c1ccccc1 | 14.5%
